# The supplement of paper PMC7826260
# The list shows a part of the results. Each Rep nickase domain was tested in vitro on the same pool of single strands for 1 h at 37 °C with 3 µM enzyme; only the middle of the 90-letter strands is printed. Values are log2 of uncut reads against the no-enzyme pool; the lower, the more was cut; hits are not called. The scaling is to total reads, so uncut sequences can rise above 0 when many others are cut.
# Legend:
# Experiment in all cases: uncleaved DNA left, log2 of reads against the no-enzyme library (log2 ratio); higher = less cleavage (more negative = more Rep cleavage of the k-mer); sequences stand for … in CTCGTCCG…ACCGGAGA
# [1] = system: T1, Rep nickase domain of Muscovy duck circovirus
# T1 sequence (residues 1-111, tag not shown): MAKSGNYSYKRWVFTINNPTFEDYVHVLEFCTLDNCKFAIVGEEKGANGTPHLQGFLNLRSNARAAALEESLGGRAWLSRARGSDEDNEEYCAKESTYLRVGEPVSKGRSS
# Method: (§1)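 A pool of 90-nt single-stranded DNAs with seven random bases just before the constant AC of the nick site (name = the seven bases) was cut by 3 µM recombinant His6-SUMO-tagged Rep nickase domain (300 nM DNA, 50 mM HEPES pH 8.0, 50 mM NaCl, 1 mM MnCl2, 1 h, 37 °C, three replicates). Uncut DNA was amplified and sequenced.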
# [2] = system: T2, Rep nickase domain of banana bunchy top virus
# T2 sequence (residues 1-94, tag not shown): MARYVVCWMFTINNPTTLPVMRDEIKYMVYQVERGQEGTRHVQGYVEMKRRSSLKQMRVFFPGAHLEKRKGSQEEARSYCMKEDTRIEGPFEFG
# Method: as §1
# [3] = system: T3, Rep nickase domain of cabbage leaf curl virus
# T3 sequence (residues 1-116, tag not shown): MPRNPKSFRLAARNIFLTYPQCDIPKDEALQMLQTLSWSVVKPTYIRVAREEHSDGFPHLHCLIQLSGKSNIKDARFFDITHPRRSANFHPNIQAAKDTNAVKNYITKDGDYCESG
# Method: as §1
# [4] = system: T4, Rep nickase domain of chickpea chlorotic dwarf virus
# T4 sequence (residues 1-124, tag not shown): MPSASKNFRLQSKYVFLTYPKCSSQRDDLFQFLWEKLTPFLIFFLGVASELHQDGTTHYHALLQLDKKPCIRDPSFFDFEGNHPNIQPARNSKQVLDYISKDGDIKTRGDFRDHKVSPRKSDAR
# Method: as §1
# [5] = system: T5, Rep nickase domain of faba bean necrotic yellows virus
# T5 sequence (residues 1-98, tag not shown): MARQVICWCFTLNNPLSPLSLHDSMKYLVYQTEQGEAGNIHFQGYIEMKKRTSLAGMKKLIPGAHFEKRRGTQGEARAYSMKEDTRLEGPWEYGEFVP
# Method: as §1
# [6] = system: T6, Rep nickase domain of maize striate mosaic virus
# T6 sequence (residues 1-117, tag not shown): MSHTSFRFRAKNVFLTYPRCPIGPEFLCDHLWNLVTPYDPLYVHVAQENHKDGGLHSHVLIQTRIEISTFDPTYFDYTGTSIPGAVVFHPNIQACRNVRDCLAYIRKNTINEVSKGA
# Method: as §1
# [7] = system: T7, Rep nickase domain of porcine circovirus 2
# T7 sequence (residues 2-116, tag not shown): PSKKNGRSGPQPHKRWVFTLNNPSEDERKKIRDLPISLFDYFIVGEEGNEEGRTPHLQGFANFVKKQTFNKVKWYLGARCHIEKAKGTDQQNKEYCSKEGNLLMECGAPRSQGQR
# Method: as §1
# [8] = system: T8, Rep nickase domain of tomato golden mosaic virus
# T8 sequence (residues 1-124, tag not shown): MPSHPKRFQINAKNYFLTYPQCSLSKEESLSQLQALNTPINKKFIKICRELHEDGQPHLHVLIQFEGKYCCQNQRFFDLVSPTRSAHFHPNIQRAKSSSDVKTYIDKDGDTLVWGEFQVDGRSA
# Method: as §1
# [9] = system: T9, Rep nickase domain of tomato yellow leaf curl virus
# T9 sequence (residues 1-136, tag not shown): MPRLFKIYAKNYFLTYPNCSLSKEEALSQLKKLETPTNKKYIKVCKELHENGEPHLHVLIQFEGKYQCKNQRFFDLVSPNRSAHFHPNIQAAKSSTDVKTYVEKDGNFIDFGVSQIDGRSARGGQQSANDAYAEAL
# Method: as §1
# [10] = system: T10, Rep nickase domain of wheat dwarf virus
# T10 sequence (residues 1-137, tag not shown): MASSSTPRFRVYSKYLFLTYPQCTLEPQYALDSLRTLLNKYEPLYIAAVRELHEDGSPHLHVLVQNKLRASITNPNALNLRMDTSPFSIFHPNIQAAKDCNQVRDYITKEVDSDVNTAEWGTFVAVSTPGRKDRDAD
# Method: as §1
Sequence,uncleaved DNA left (log2) [1],uncleaved DNA left (log2) [2],uncleaved DNA left (log2) [3],uncleaved DNA left (log2) [4],uncleaved DNA left (log2) [5],uncleaved DNA left (log2) [6],uncleaved DNA left (log2) [7],uncleaved DNA left (log2) [8],uncleaved DNA left (log2) [9],uncleaved DNA left (log2) [10]
CTCCCCA,-0.0315,0.0873,0.063,-0.727,0.0794,-0.355,-0.217,0.0104,0.0551,0.217
CATAAAG,-0.081,-0.0693,-0.706,-0.13,0.0213,-1.09,0.0876,-0.0694,0.00572,-0.1
ACCTTGG,-0.143,-0.0321,-0.874,-0.386,-0.135,-1.24,0.0335,-0.117,-0.071,-0.175
CATTTGG,-0.00376,-0.104,-0.793,-0.75,-0.041,-1.1,0.146,-0.047,-0.0185,-0.0924
ACCTCTT,-1.51,-0.19,-0.589,-2.14,-0.0796,-0.341,-2.84,-0.0747,-0.296,-0.168
TTATGCA,-0.254,-0.0235,-0.526,-1.13,-0.223,-1.38,-0.2,-0.102,0.0275,-0.131
ATGGCTT,0.08,0.0973,0.144,-0.085,-0.0106,0.828,-0.0443,0.124,0.0721,0.0289
TGGGACG,-0.0829,0.0629,0.719,1.67,-0.144,1.82,0.144,0.0484,-0.0227,0.11
TACAATG,0.126,-0.0463,-0.44,-0.71,0.058,-0.923,0.202,0.129,-0.0368,0.133
TGTCTTC,0.0278,-0.172,0.277,0.375,-0.0185,0.754,0.0208,-0.123,-0.063,-0.107
ATATTCC,-0.0389,-0.0355,-0.0248,-0.134,-0.0535,-0.451,-0.468,-0.076,-0.049,-0.0331
TCTATAC,-0.105,-0.201,0.0429,-0.706,-0.0577,-0.677,0.0561,-0.0975,-0.116,-0.155
CTCTTTA,-0.126,-0.171,-0.202,-1.68,-0.0524,-0.973,-0.124,-0.161,-0.175,-0.0321
TAAAGCT,0.0544,-0.00557,-3.65,-2.91,0.0171,-1.6,-0.122,-1.09,-0.00972,-2.69
CGCCTAG,-0.141,-0.0121,-0.642,-0.405,-0.151,-0.836,0.0569,-0.151,0.139,-0.016
TGTCGGT,0.0243,0.0099,0.564,1.35,0.0245,1.44,0.0234,0.0836,0.0426,0.0359
TTGCGGG,-0.0261,-0.0733,-0.663,-0.74,-0.055,-0.894,0.00377,-0.0739,-0.0605,-0.0985
GCGTTAT,-0.17,-0.255,-0.00768,-0.0363,-0.157,0.071,-1.83,-0.205,-0.2,-0.0631
TATCCCC,-0.215,-0.114,0.0645,-0.394,-0.1,0.0306,-1.56,-0.23,-0.0536,-0.0109
TTTCACG,0.000688,0.0141,-0.733,-0.95,0.0403,-1.27,0.0501,-0.0726,-0.102,-0.114

Sequence,uncleaved DNA left (log2) [1],uncleaved DNA left (log2) [2],uncleaved DNA left (log2) [3],uncleaved DNA left (log2) [4],uncleaved DNA left (log2) [5],uncleaved DNA left (log2) [6],uncleaved DNA left (log2) [7],uncleaved DNA left (log2) [8],uncleaved DNA left (log2) [9],uncleaved DNA left (log2) [10]
GCAGTAT,0.122,0.0275,0.213,0.141,-0.1,0.345,0.0979,0.121,0.182,0.159
TCTGACA,0.0428,0.166,0.0329,0.0523,0.0181,0.53,0.0234,0.153,0.0068,0.0171
CTGTGGT,-0.0425,0.0774,0.238,0.0885,0.0326,0.179,-2.33,0.0357,0.117,0.0422
GCGGGCA,0.0875,0.137,0.87,1.78,-0.0419,2.02,0.164,-0.0189,0.0587,0.113
CCGTGAT,-0.0282,-0.132,-0.568,-0.0356,-0.195,1.17,-2.38,-0.207,-0.0966,-0.544
CTTTCTT,-3.12,-0.686,-0.309,-2.72,-0.0583,-0.703,-2.92,-0.241,-0.031,-0.305
AATGCTT,-0.181,-0.345,-0.106,-1.54,-0.103,0.495,-0.853,-0.0224,-0.108,-0.0318
TAGTTCG,-0.0847,0.0491,-0.795,-0.0551,0.0821,-1.16,-0.385,-0.122,0.101,-0.109
CCAGGTA,0.145,0.0294,0.412,0.91,0.17,1.25,0.101,0.174,-0.0217,0.0784
GCAGGGG,0.0205,0.0355,0.371,0.766,-0.0234,0.367,0.248,0.103,-0.0653,0.111
TCCCTTA,-0.0945,-0.0975,0.209,-0.804,-0.0345,-0.172,-0.331,0.0211,-0.0472,-0.152
AAACACC,-0.0765,-0.0157,-0.0968,-1.06,0.0419,-0.576,-0.168,-0.0034,-0.0563,-0.0585
CTCGTTT,-0.062,-0.116,-0.0557,-1.76,0.111,-0.425,-0.763,-0.0405,0.052,0.0157
TATGTGA,-0.0551,-0.0331,-0.358,-0.92,0.0762,-1.04,0.109,-0.125,-0.0462,0.0136
ACGTTAA,-0.00682,-0.11,-0.0979,-0.153,0.0404,-0.512,-0.00945,0.0194,-0.17,-0.147
ACGGATC,0.106,-0.0268,-0.0011,0.408,0.00766,0.499,0.182,-0.0512,-0.0529,0.0318
GGGAGCG,-0.0727,-0.0276,-0.296,0.179,0.0452,-0.18,0.143,-0.0204,-0.0416,-0.0349
GGAAAAC,0.0377,0.157,0.661,1.68,0.0253,1.99,0.157,0.0858,0.0659,0.245
CGGCGTT,0.074,-0.251,-0.271,-0.557,-0.183,-0.356,-0.098,-0.247,-0.241,-0.43
GTCCGTT,-0.0985,-0.144,0.15,0.413,-0.171,1.19,-0.155,-0.0734,0.0342,-0.0223

Sequence,uncleaved DNA left (log2) [1],uncleaved DNA left (log2) [2],uncleaved DNA left (log2) [3],uncleaved DNA left (log2) [4],uncleaved DNA left (log2) [5],uncleaved DNA left (log2) [6],uncleaved DNA left (log2) [7],uncleaved DNA left (log2) [8],uncleaved DNA left (log2) [9],uncleaved DNA left (log2) [10]
AGAGTAT,0.00849,0.0998,0.141,0.73,-0.0557,1.22,-0.145,-0.00491,-0.00509,0.045
GCAATCA,0.000759,0.106,0.101,-0.259,-0.00666,0.226,0.0752,-0.014,0.126,0.0803
GCAAAGA,0.148,0.1,0.164,0.33,0.0396,-0.459,0.224,0.137,0.0798,0.13
GGATAAC,0.232,0.115,0.53,1.21,0.0201,1.83,0.199,0.189,0.159,0.27
TGCTTGC,0.0816,0.0018,0.145,0.262,0.000373,0.0896,0.0713,0.116,0.0808,-0.0223
CATGACC,-0.166,-0.0802,-0.00741,0.293,-0.0609,0.245,-0.00739,-0.0494,-0.0222,-0.103
TCTCGGT,0.0601,0.0132,0.441,0.816,-0.103,1.23,0.0653,0.0684,-0.00567,-0.097
CAACGTA,-0.0561,-0.119,-0.389,-2.12,0.00403,-0.864,-0.198,-0.102,-0.114,-0.152
ACCAAGA,-0.111,-0.0991,-0.141,-0.0999,0.0215,-1.11,0.0977,0.0339,0.00595,-0.106
ACTGCCA,0.00972,0.00779,-0.065,-0.248,0.0126,-0.188,-0.0635,0.00722,0.0397,-0.0137
CGGAGCC,-0.048,-0.0527,0.304,0.63,0.00405,0.372,-0.0643,-0.11,0.0422,-0.0426
GGAACGA,0.0334,0.202,0.866,1.95,-0.0312,2.11,0.309,0.0528,0.0705,0.192
ACAGAAT,0.00799,-0.038,-0.0707,-0.483,0.114,-0.284,0.0985,0.136,-0.296,-0.0347
GGAATAA,-0.00314,0.000128,0.573,1.37,-0.00129,1.86,0.126,-0.042,0.0151,0.105
ATCCGAG,-0.0437,0.0827,0.829,1.69,0.0238,1.46,0.139,0.0349,0.037,0.192
AGCCGAA,-0.16,-0.156,-0.0141,0.219,-0.145,-0.00552,-0.412,-0.219,-0.193,-0.0703
TAACTAT,-0.103,-0.0472,-3.19,-3.48,-0.0662,-1.17,-0.351,-0.67,-0.00416,-2.6
AGGATTT,0.11,0.0407,0.113,-0.11,-0.0458,1.22,-0.327,0.00568,-0.0409,0.0876
GGATTTA,0.0313,0.0236,0.558,0.98,0.0233,1.86,0.177,0.0886,0.0543,0.0948
TACGGGC,-0.0656,-0.00912,0.16,0.157,0.052,0.0439,0.167,-0.0874,-0.0027,-0.0883
